These results are taken from patent US9750727B2 (priority 2010, dated 2017).

This assay deals with peritoneal macrophages (pMP). It counts as in vivo, mice.

Values joined by “and” are separate entries in the source; they are usually repeats but may differ in a detail not shown here. Identical values can stand only once. Like-named read-outs stand apart in the source and are kept apart here.

With `NCC[C@H](O)C(=O)N[C@@H]1C[C@H](N)[C@@H](O[C@H]2O[C@H](CN)[C@@H](O)[C@H](O)[C@H]2O)[C@H](O)[C@H]1O[C@H]1O[C@H](CO)[C@@H](O)[C@H](N)[C@H]1O` [Amycacin, amycacin], where the note is “TB drug in combination with the new treatment vs TB drug monotherapy”, the “decrease of pMP activity” value is 2.8 fold. Further, the “mean macrophagal activity of pMP” value is, setting by setting: (TB drug in combination with the new treatment, infected mice) 68.29; (monotherapy, infected mice) 193.42.
Regarding `CC[C@@H](CO)NCCN[C@@H](CC)CO` [Ethambutol, ethambutol], under “mouse, in vivo”, the “mean macrophagal activity of pMP” value was 106.35 and 81.95.
Same read-out and setting: in the case of `NNC(=O)c1ccncc1` [Isoniazid, isonicotinic acid hydrazide] it was 77.66 and 66.54.
Turning to `CC1COc2c(N3CCN(C)CC3)c(F)cc3c(=O)c(C(=O)O)cn1c23` (stereo not shown) [Ofloxacin], where the note is “mouse, in vivo”, the “increase of pMP phagocytosis” value is 1.2 fold; the “mean macrophagal activity of pMP” value was 95.14 and 111.66.
Consider `CO[C@H]1/C=C/O[C@@]2(C)Oc3c(C)c(O)c4c(c3C2=O)C2=NC3(CCN(CC(C)C)CC3)NC2=C(NC(=O)/C(C)=C\C=C\[C@H](C)[C@H](O)[C@@H](C)[C@@H](O)[C@@H](C)[C@H](OC(C)=O)[C@@H]1C)C4=O` [Rifabutin, rifabutin], for which, for the setting “mouse, in vivo”, the “increase of pMP phagocytosis” value was found to be 1.3 fold; the “mean macrophagal activity of pMP” value was 66.88 and 83.55.
For the molecule `NC(=S)NN=Cc1ccncc1.[O-][Cl+3]([O-])([O-])O` [new treatment], the “mean macrophagal activity of pMP” value (monotherapy, infected mice) is recorded as 132.41.
